PubChem BioAssay AID504832 (National Center for Advancing Translational Sciences (NCATS), 2011)
Values joined by “and” are separate entries in the source; they are usually repeats but may differ in a detail not shown here. Equal entries are not always repeated. Among all 310,000 compounds or so, about 18,000 (5.8%) were called active. The shares of active, inactive and inconclusive entries below differ from those in the screen. Calls come from the whole dose curve; as a rule, active = well fitted inhibition curve with a large enough effect; inconclusive = small, poorly fitted or top-dose-only effect, or another doubt; inactive = no such curve, though single readings can be large or run the other way. Potencies beside an inconclusive call are fits to weak or partial responses and may not hold up.

Assay: Primary qHTS for delayed death inhibitors of the malarial parasite plastid, 48 hour incubation
Conditions: P. falciparum luciferase growth in erythrocytes; series mostly up to 28.7 µM; activity change, negative = inhibition: at the top concentration
Procedure, shortened: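 Luminescence readout; reporter = integrated firefly luciferase in P. falciparum. RBC culture at 2% hematocrit, 0.1% parasitemia final, 37 C/5% CO2; decreased signal taken as growth inhibition.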
% is set by controls: 0 for no effect and ±100 for the full control effect; potency is the fitted concentration of half-maximal effect; tags give direction and shape of the fitted curve.

SMILES	Potency	activity change, negative = inhibition
O=C(C[N+]1(CC#Cc2ccccc2)CCOCC1)c1ccccc1	active: 13.1 µM	
COc1ccc(C(C(=O)NCC2CCCO2)N(C(=O)CNC(=O)c2cccs2)c2ccc(C(C)=O)cc2)cc1OC (centres undefined)	active: 11.7 µM	
O=C(Nc1cccc(-c2ccc(N3CCCCC3)nn2)c1)c1ccc(Br)o1	inconclusive: 18.5 µM [inhibitor, single point]	
Nc1c(C(=O)NCCc2ccc(Cl)cc2)sc2ccc(S(=O)(=O)N3CCCCC3)cc12	active: 10.4 µM	
CCCCOC(=O)c1cccc(NC(=O)CC)c1	inconclusive: 14.7 µM [inhibitor, single point]	
CCn1c(-c2ccccc2Cl)nn(CC(=O)Nc2ccccc2C)c1=S	inconclusive: 18.5 µM [inhibitor, partial curve, poor fit]	
CCOc1ccc(C(=O)Nc2cc(-c3nc4ccccc4[nH]3)ccc2C)cc1[N+](=O)[O-]	inconclusive: 11.7 µM [inhibitor, single point]	
Cc1sc2ncnc(N/N=C/c3ccc(O)cc3)c2c1C		inactive: 12.9%
CCOC(=O)Cc1nn(CC)c(=O)c2ccccc12		inactive: 44.2%
COc1ccc(C(=O)Nc2sc3c(c2C#N)CCN(C(C)=O)C3)cc1	inconclusive: 9.28 µM [inhibitor, single point]	
CCCCN1C(Nc2ccccc2)=NC[C@@H]1CC(C)C	inconclusive: 18.5 µM [inhibitor, single point]	
Cc1oc2ccc(OC(=O)c3cccs3)cc2c1C(=O)OC(C)C		inactive: 38%
COC(=O)C1=C(C)NC(C)=C(C(=O)OC(C)(C)CN(C)CCC(c2ccccc2)c2ccccc2)C1c1cccc([N+](=O)[O-])c1 (centres undefined)	active: 1.51 µM	
CC(=C/c1ccccc1)/C=N/NC(=O)c1ccccn1	inconclusive: 9.28 µM [inhibitor, partial curve, poor fit]	
Cc1sc2nc(C3CC3)nc(NCCNS(C)(=O)=O)c2c1C	inconclusive: 11.7 µM [inhibitor, single point]	
Cc1ccc(C(=O)N2CCN(Cc3ccc4c(c3)OCO4)CC2)cc1S(=O)(=O)N1CCOCC1	inconclusive: 10.4 µM [inhibitor, single point]	
CN(C(=O)c1ccc(NC(=O)Cc2ccc(NC(=O)C3CCCN(C(=O)C4CCCC4)C3)cc2)cc1)C1CC1 (centres undefined)	inconclusive: 2.08 µM [inhibitor, partial curve]	
CC(C)c1ccc(C2(C)NC(=O)N(CC(=O)NC3(C#N)CCCC3)C2=O)cc1 (centres undefined)	inconclusive: 18.5 µM [inhibitor, single point]	
CC(Sc1nc(=O)cc(N)n1CCc1ccccc1)C(=O)NCc1ccccc1 (centres undefined)	inconclusive: 10.4 µM [inhibitor, single point]	
N=C1/C(=C/c2cccn2Cc2ccc(Cl)cc2)C(=O)N=C2SC=CN12	inconclusive: 11.7 µM [inhibitor, single point]	
O=C(NCc1ccco1)c1ccc(-c2csnn2)cc1	inconclusive: 1.65 µM [inhibitor, full curve]	
Cc1ccc(-c2nc3ccccc3s2)cc1NC(=S)NC(=O)/C=C/c1ccco1		inactive: 130%
COc1ccc(OC)c(NC(=O)C2COc3ccccc3O2)c1 (centres undefined)	inconclusive: 5.22 µM [inhibitor, partial curve]	

SMILES	Potency	activity change, negative = inhibition
COc1ccc(C(=O)NC2CC2)cc1OC1CCN(Cc2ccc(F)cc2F)CC1	inconclusive: 18.5 µM [inhibitor, single point]	
Cc1cc(C(=O)NCCCc2ccccc2)no1	inconclusive: 10.4 µM [inhibitor, partial curve, poor fit]	
N#CC1(NC(=O)CN2C(=O)NC(c3ccccc3)(c3ccccc3)C2=O)CCCC1	inconclusive: 14.7 µM [inhibitor, partial curve, poor fit]	
CCN(CC)S(=O)(=O)c1cccc(-c2nnc(SCC(=O)c3ccc(Cl)s3)n2C)c1	active: 13.1 µM	
CCOc1cc2c(cc1OCC)-n1cccc1C(c1ccccc1F)NC2 (centres undefined)	active: 8.28 µM	
CCCCN(C)C(=O)C1CCCN(S(=O)(=O)c2ccc3c(c2)CC(C)N3C(=O)C2CC2)C1 (centres undefined)	inconclusive: 18.5 µM [inhibitor, single point]	
O=C(O)/C=C/C(O)c1ccc(Cl)cc1 (centres undefined)	inconclusive: 18.5 µM [inhibitor, single point]	
CC12CCC(C(=O)Nc3ccc(Br)cn3)(OC1=O)C2(C)C (centres undefined)	inconclusive: 4.15 µM [inhibitor, single point]	
O=C(Nc1cccc(S(=O)(=O)NC2=NCCCCC2)c1)c1cc(-c2ccccc2Cl)nc2ccccc12	inconclusive: 9.28 µM [inhibitor, partial curve, poor fit]	
Cc1ccc(-c2c(C(=O)N/N=C/c3ccco3)nnn2-c2nonc2N)cc1	inconclusive: 8.28 µM [inhibitor, partial curve]	
O=C(c1cc(-c2cccs2)nc2ccccc12)N1CCN(c2ccccc2O)CC1	inconclusive: 13.1 µM [inhibitor, single point]	
COC(=O)C(=C/C=C/c1cccnc1)C(=O)OC	inconclusive: 11.7 µM [inhibitor, partial curve]	
CCN1/C(=C2\SC(=S)N(Cc3ccccc3)C2=O)Sc2ccccc21		inactive: -3.52%
CN(Cc1ccccc1)C(NC(=O)c1ccco1)C(Cl)(Cl)Cl (centres undefined)	inconclusive: 0.0033 µM [inhibitor, full curve, poor fit]	
CCCn1nnc(NC(=O)c2ccc(-c3ccccc3)cc2)n1	inconclusive: 18.5 µM [inhibitor, single point]	
Oc1ccccc1CNc1cnc2ccccc2c1		inactive: 140%
CCOC(=O)N1CCN(C(=O)c2ccc(N(Cc3ccc(C)cc3)S(C)(=O)=O)cc2)CC1		inactive: -1.44%
CCS(=O)(=O)c1ccc2oc(Nc3cc(C)cc(C)c3)nc2c1	inconclusive: 13.1 µM [inhibitor, partial curve]	
COc1cc(/C=C/C(=O)/C=C(O)/C=C/c2ccc(O)c(OC)c2)ccc1O	inconclusive: 19 µM [inhibitor, single point] and inconclusive: 18.5 µM [inhibitor, single point]	
COc1ccccc1NC(=O)C(C)N1CCN(C/C=C/c2ccccc2)CC1 (centres undefined)	active: 13.1 µM	
CC(C)C(NS(=O)(=O)c1cccs1)C(=O)Nc1nc(C(C)(C)C)cs1 (centres undefined)	active: 11.7 µM	
Cc1nnc(Oc2ccccc2)c2ccccc12		inactive: -3.19%
COC(=O)c1cccc(NC(=O)CSc2nnc(COc3ccc(C#N)cc3)n2-c2ccccc2)c1	inconclusive: 9.28 µM [inhibitor, partial curve, poor fit]	

SMILES	Potency	activity change, negative = inhibition
CC(=O)N(CN1C(=O)C2C3C=CC(C3)C2C1=O)c1cccc(Cl)c1 (centres undefined)	inconclusive: 13.1 µM [inhibitor, single point]	
COc1ccc(N(Cc2cc(=O)[nH]c3ccccc23)C(=O)CCl)cc1	inconclusive: 18.5 µM [inhibitor, single point]	
Cc1c(C(=O)N2CCC(C)CC2)oc2ccc(S(=O)(=O)N3CCC4(CC3)OCCO4)cc12	inconclusive: 11.7 µM [inhibitor, partial curve]	
Cc1cc(NC(=O)c2cccnc2)ccc1NC(=O)c1cc2ccccc2o1		inactive: -16.6%
O=c1[nH]nc(N2CCOCC2)c(=O)[nH]1		inactive: 6.09%
Cc1ccc(NC(=O)Cn2c(=O)cnc3ccccc32)cc1S(=O)(=O)N1CCOCC1	inconclusive: 11.7 µM [inhibitor, single point]	
COc1ccc(C(=O)Nc2cnc3sc(C)nn3c2=O)cc1		inactive: 95.8%
O=C(O)CC(c1cccc2ccccc12)n1cccc1 (centres undefined)		inactive: 42.1%
c1cncc(C2Nc3cccc4cccc(c34)N2)c1	inconclusive: 18.5 µM [inhibitor, single point]	inactive: 16.7% [at 0.00184 µM]
Brc1ccc(-c2csc(N/N=C/c3cccnc3)n2)cc1	inconclusive: 13.1 µM [inhibitor, partial curve]	
COc1ccc(/C=C(/NC(=O)c2ccccc2)C(=O)N2CCCCC2)cc1OC	inconclusive: 0.37 µM [inhibitor, full curve, poor fit]	
Cc1cc(C)nc(/N=C2\NC(=O)CC(C(=O)O)N2c2ccc(Oc3ccccc3)cc2)n1 (centres undefined)	inconclusive: 10.4 µM [inhibitor, single point]	
COc1ccc(S(=O)(=O)N2CCC3(CC2)OCCN3S(=O)(=O)c2c(C)cc(C)cc2C)cc1	active: 1.04 µM	
Cc1[nH]c(-c2ccccn2)nc(=S)c1Cl	inconclusive: 7.38 µM [inhibitor, partial curve]	
O=c1[nH]ncc2c3ccccc3n(Cc3ccc(F)cc3)c12	active: 3.29 µM	
CCCCCCCC1=CC2=CC(=O)C(C)(OC(C)=O)C(=O)C2=CN1CCc1ccccc1 (centres undefined)	inconclusive: 18.5 µM [inhibitor, single point]	
COc1ccc(OC)c(CCNC(=O)c2nn(C)c3c2CS(=O)(=O)c2ccccc2-3)c1	inconclusive: 5.22 µM [inhibitor, partial curve, poor fit]	
Nc1ccc(S(=O)(=O)Nc2nc3ccccc3o2)cc1		inactive: 0%
Cc1ccc(S(=O)(=O)N2CCCCC2C(=O)N2CCN(c3ccccc3F)CC2)cc1 (centres undefined)	inconclusive: 9.28 µM [inhibitor, single point]	
CC(=O)c1sc(N/N=C2\CC3CCC2(C)C3(C)C)nc1C (centres undefined)		inactive: 68%
COc1cccc2cc(C(=O)NCCc3ccccc3)oc12	active: 8.28 µM	
NC(=O)C1CCN(c2ccc(S(=O)(=O)N3CCC(Cc4ccccc4)CC3)cn2)CC1		inactive: 30.7%
